PubChem BioAssay AID485294 (National Center for Advancing Translational Sciences (NCATS), 2010)
Screen size: about 370,000 compounds; about 150 (0.041%) were called active. This list was built around the results that the source calls inconclusive (neither active nor inactive); the mix of calls is not that of the screen. The call rests on the fitted dose curve; in most records, active means well fitted inhibition curve with a large enough effect; inconclusive means small, poorly fitted or top-dose-only effect; inactive means flat fitted curve, though single readings scatter. Potencies of inconclusive entries are left out as doubtful fits. Peptide text beside a SMILES is read from it. * marks the point of attachment. Boc = CC(C)(C)OC(=O)*

What follows are molecules tested against Beta-lactamase (Escherichia coli (strain K12)) (UniProt P00811) (assay: qHTS Inhibitors of AmpC Beta-Lactamase (assay with detergent)). Conditions: AmpC hydrolysis of nitrocefin, absorbance 480 nm, 0.01% Triton; series mostly up to 114 µM.
Procedure, shortened: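 20 mM phosphate pH 7.0 + 0.01% (detergent screen) or 0.0001% Triton X-100; 5.3 nM AmpC reagent; cpd preinc 15 min RT; nitrocefin (800 uM stock) to start; A480 q20 s × 4 min; Activity was normalised to no-enzyme and no-compound control wells.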
Further: nearly all actives have a fitted effect of over 25% in size.
Potency means the concentration at half of the fitted maximal effect; tags describe the fitted curve by direction and shape.

UniProt P00811, sequence (P00811 whole entry, looked up): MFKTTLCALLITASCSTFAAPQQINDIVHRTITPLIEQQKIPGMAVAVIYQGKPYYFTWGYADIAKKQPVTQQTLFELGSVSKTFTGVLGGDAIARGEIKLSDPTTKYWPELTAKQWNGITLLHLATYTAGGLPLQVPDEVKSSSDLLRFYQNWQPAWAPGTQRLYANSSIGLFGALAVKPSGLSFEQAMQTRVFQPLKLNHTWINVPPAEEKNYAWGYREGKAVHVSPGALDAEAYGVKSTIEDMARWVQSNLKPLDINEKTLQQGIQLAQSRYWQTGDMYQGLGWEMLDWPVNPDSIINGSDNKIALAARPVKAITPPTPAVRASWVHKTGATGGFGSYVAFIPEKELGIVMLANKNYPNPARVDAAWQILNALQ

Compound | Potency
Cc1ccc(C(C)C)c(OCC(=O)Nc2ccc(N3CCN(S(C)(=O)=O)CC3)cc2)c1 | inconclusive [inhibitor, full curve, poor fit]
CC(C)Sc1nnc([C@@H](N)Cc2c[nH]c3ccccc23)o1 | inconclusive [inhibitor, full curve, poor fit]
Cc1cc(NC(=O)CCC(=O)N(c2ccccc2)C(C(=O)NC2CCCC2)c2ccncc2)no1 (centres undefined) | inconclusive [inhibitor, full curve, poor fit]
O=C(Nc1cccc(O)c1)c1cccc(S(=O)(=O)Nc2cccc(O)c2)c1 | inconclusive [inhibitor, full curve, poor fit]
CC(C)c1nnc(NC(=O)c2cccs2)s1 | inconclusive [inhibitor, full curve]
COc1ccc(NC(=O)c2cc(-c3ccccc3)nc3c2cnn3C(C)C)c(OC)c1 | inactive
CC(NC(=O)C(NC(=O)C(Cc1c[nH]c2ccccc12)NC(=O)OC(C)(C)C)C(C)C)C(N)=O (stereo not drawn) (Boc-Trp-Val-Ala-NH2; configuration not given here) | inconclusive [inhibitor, single point]
O=C(CCCc1nc2ccccc2s1)NCc1ccccc1F | inconclusive [inhibitor, full curve, poor fit]
CCOC(=O)C1=NN(C(=O)c2ccco2)C2(CC2)C1 | inconclusive [inhibitor, full curve]
CSCCC(NC(=O)c1ccccc1Cl)C(=O)N1CCN(C(c2ccccc2)c2ccccc2)CC1 (centres undefined) | inconclusive [inhibitor, single point]
c1ccc2[nH]c(N3CCOCC3)nc2c1 | inactive
Cc1cccc(NC(=O)CCc2nnc3ccc(NCc4ccco4)nn23)n1 | inactive
COc1ccccc1N(C(=O)c1ccco1)C(C(=O)NC1CCCC1)c1ccncc1 (centres undefined) | inactive
CCOc1ccccc1NC(=O)c1ccc2c(c1)CCN2S(C)(=O)=O | inactive
COc1ccc(CCn2c(C)cc(C(=O)COC(=O)c3ccc(NC(=O)CC#N)cc3)c2C)cc1 | inactive
CCCCN(C(=O)c1cccc(-n2cccc2)c1)c1c(N)n(CCC)c(=O)[nH]c1=O | inconclusive [inhibitor, single point]
O=C(Nc1ccc2c(c1)OCCO2)c1cccnc1 | inconclusive [inhibitor, full curve, poor fit]
CCOCCCNC(=S)Nc1ccc2nc(N3CCCC3)cc(C)c2c1 | inactive
CCOC(=O)C1CCCN(C(=O)/C=C/c2cccc([N+](=O)[O-])c2)C1 (centres undefined) | inconclusive [inhibitor, partial curve]
